Experimental data from PubChem BioAssay (Tox21).
“And” between values parts separate entries of the source, which are not always exact repeats. Identical values can stand only once. This list was built around the results that the source calls inconclusive (neither active nor inactive); the mix of calls is not that of the screen. Potencies beside an inconclusive call are fits to weak or partial responses and may not hold up. Some compounds were tested as several samples or in several runs, with calls that do not always agree. The source made the active and inactive calls. Calls follow the shape of the dose curve; as a rule, active = well fitted activation curve with a large enough effect in the repeat runs; inconclusive = weak or mixed curves; inactive = flat fitted curve, though single readings scatter.

Test: A CellTox Green Cytotoxicity Assay to monitor cytotoxicity in HepG2 cells - 32 hour (AID 1224883); also: nearly all actives have a fitted effect of over 50% in size
Details: CellTox Green fluorescence; series mostly up to 76.8 µM
From the text: National Center for Advancing Translational Sciences [NCATS]
NIH Chemical Genomics Center [NCGC]
U.S. Environmental Protection Agency [EPA]
National Institutes of Environmental Health Sciences [NIEHS]
National Toxicology Program [NTP]
Cell-based models are critical for drug discovery. Determining the natural cytotoxic effects resulting from test compounds is an essential research activity. A CellTox Green Cytotoxicity Assay to monitor cytotoxicity in real time of continues cell culture during 40 hours of the compound treatment was used to screen Tox21 10K library compounds in HepG2 cells. CellTox Green Cytotoxicity Assay is a nonlytic, homogeneous, biofluorescent method to measure cytotoxicity in cell culture after experimental manipulation. The assay system uses a proprietary asymmetric cyanine dye that is excluded from viable cells but preferentially stains the dead cell's DNA. […] Viable cells produce no appreciable increases in fluorescence. Therefore, the fluorescence signal produced by the binding interaction with dead cell DNA is proportional to cytotoxicity.
The mixture of HepG2 cell suspension and reagents were dispensed at 600cells/6 ul/well in 1536-well tissue culture treated black solid bottom plates using a Multidrop dispenser. After the assay plates were incubated at a 37 C/5% CO2 incubator for 5 hours, 23 nL of compounds dissolved in DMSO, positive and negative controls was transferred to the assay plate by a pintool work station. The plates were incubated at 37 C for 40 hours. The fluorescence intensity were measured at 0h, 8h, 16h, 24h, 32h and 40h time points using ViewLux plate reader during compound treatment.
% is scaled to controls: 0 for no effect and ±100 for the full control effect; potency is read from the fitted curve at half-maximal effect; tags tell the direction and shape of the fitted curve.

Row | SMILES | Potency | cytotoxicity increase
1 | CC(C)Nc1nc(N)nc(Cl)n1 | inactive | 
2 | COc1ccc(CCN(C)CCCC(C#N)(c2ccc(OC)c(OC)c2)C(C)C)cc1OC (stereo not given) | inconclusive: 26.8 µM [activator, single point] | 
3 | CO[Si](CCCNCCN)(OC)OC | inactive and active: 49 µM | 
4 | CN1CCN(c2c(F)cc3c(=O)c(C(=O)O)cn4c3c2OCN4C)CC1 |  | inactive: -4.96% [at 15.8 µM]
5 | SC1CCCC1 | inactive | 
6 | C=C1[C@H]2CC[C@@H]3[C@H]2C(C)(C)CCC[C@]13C | inactive | 
7 | c1coc(Cn2cccc2)c1 | inactive | 
8 | CC1(C)[C@H](C(=O)OCc2cccc(Oc3ccccc3)c2)[C@@H]1C=C(Cl)Cl | inactive | 
9 | C=C(C)C(=O)NCCCN(C)C | inactive | 
10 | CCOC(=O)n1ccn(C)c1=S | inconclusive: 21.3 µM [activator, partial curve, poor fit] | 
11 | CC(C)C(=O)OCc1ccccc1 | inconclusive: 54.9 µM [activator, single point] | 
12 | CCCN(C1CCN(C(=O)C2CCNCC2)CC1)[C@@H]1CCc2ccc(OC)cc2C1 | inconclusive: 21.9 µM [activator, single point] | 
13 | C=COCC1CCC(COC=C)CC1 (stereo not given) | inconclusive: 21.9 µM [activator, single point] | 
14 | O=C(CO)[C@@H](O)[C@H](O)[C@@H](O)CO | inconclusive: 26.8 µM [activator, single point] | 
15 | CCC[C@@H]1C[C@@H](C(=O)N[C@@H]([C@H]2O[C@H](SC)[C@H](O)[C@@H](O)[C@H]2O)[C@@H](C)O)N(C)C1 | inactive | 
16 | O=C(CN1CCN(Cc2ccc3c(c2)OCO3)CC1)N1c2ccccc2Sc2ccccc21 | inconclusive: 23.9 µM [activator, single point] | 
17 | CCn1ccc(NS(=O)(=O)c2ccc(N)cc2)nc1=O | inactive | 
18 | CCCC(=O)O[C@]1(C(=O)CCl)[C@@H](C)C[C@H]2[C@@H]3CCC4=CC(=O)C=C[C@]4(C)[C@@]3(F)C(=O)C[C@@]21C | inactive | 
19 | CC(=C(CCOC(=O)C(C)C)SSC(CCOC(=O)C(C)C)=C(C)N(C=O)Cc1cnc(C)nc1N)N(C=O)Cc1cnc(C)nc1N | inconclusive: 30.1 µM [activator, single point] | 
20 | c1cc(CCCc2ccncc2)ccn1 | inactive | 

Row | SMILES | Potency | cytotoxicity increase
21 | CCCO[Si](OCCC)(OCCC)OCCC | inactive | 
22 | Cc1cc(NS(=O)(=O)c2ccc(N)cc2)nc(C)n1 | inconclusive: 10.7 µM [activator, single point] | 
23 | COC(OC)(C(=O)c1ccccc1)c1ccccc1 | inactive | 
24 | O=C(O)c1c(Cl)ccc(Cl)c1Cl | inactive | 
25 | CN1CCN(C(=O)C2CCCCC2)CC1 | inactive | 
26 | Cc1cc(C)cc([N+](=O)[O-])c1 | inconclusive: 55.6 µM [activator, single point] | 
27 | CCOC(C)OCC | inactive | 
28 | C=C(C)C(=O)OCCOP(=O)(O)OCCOC(=O)C(=C)C | inactive | 
29 | O=C(O)CCC(=O)Nc1ccc(S(=O)(=O)Nc2nccs2)cc1 | inconclusive: 26.8 µM [activator, single point] | 
30 | CN=C(NC#N)NCCSCc1nc[nH]c1C | inconclusive: 10.7 µM [activator, single point] | 
31 | NCCNC(=O)c1ccc(Cl)cn1 | inactive | 
32 | Oc1ccccc1Cc1ccccc1O | inconclusive: 54.9 µM [activator, single point] | 
33 | Cc1cccc(C)c1NC(=O)CC12CCCN1CCC2 | inconclusive: 26.8 µM [activator, single point] | 
34 | O=C1NC(=O)C(c2ccccc2)(c2ccccc2)N1 | inconclusive: 27.5 µM [activator, partial curve, poor fit] | 
35 | CCCCC(CC)COC(=O)CCCCC(=O)OCC(CC)CCCC (stereo not given) | active: 2.45 µM | 
36 | CC1OC1C1CCC2(C)OC2C1 (stereo not given) | inconclusive: 21.9 µM [activator, single point] | 
37 | CCCCC(C)C(=O)O (stereo not given) | inconclusive: 21.9 µM [activator, single point] | 
38 | NC(=O)c1ncn([C@@H]2O[C@H](CO)[C@@H](O)[C@H]2O)c1O | inconclusive: 21.3 µM [activator, partial curve, poor fit] | 
39 | O=S(=O)(O)c1cc(O)ccc1O | inconclusive: 21.9 µM [activator, single point] | 
40 | CCCCCCCCCCCCCCCC(=O)NCCO | active: 9.52 µM | 
